Data from the supplement of paper PMC8728848.
Some of the results follow.

How the values were obtained:
Experiment in all cases: glycan array binding signal (z-score within array); higher = stronger binding
Conditions in all cases: glycan notation: IUPAC condensed, linker removed
Glc(a1-6)Glc(a1-6)Glc = target: Glc(a1-6)Glc(a1-6)Glc
Procedure, shortened: (§1)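 Negative Z-scores can be read as non-binding. The Z-score is calculated within each array and then averaged across arrays of one protein sequence at different concentrations or buffers and across linkers. Arrays, 3228 in all, were curated from the Consortium for Functional Glycomics database and kept only where the protein sequence was available.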

Glc(b1-4)Glc = target: Glc(b1-4)Glc
Procedure, shortened: as §1

Glc(b1-6)Glc = target: Glc(b1-6)Glc
Procedure, shortened: as §1

GlcA(b1-3)Gal = target: GlcA(b1-3)Gal
Procedure, shortened: as §1

GlcA(b1-3)GlcNAc = target: GlcA(b1-3)GlcNAc
Procedure, shortened: as §1

GlcA(b1-6)Gal = target: GlcA(b1-6)Gal
Procedure, shortened: as §1

[1] = target: GlcNAc(a1-3)Gal(b1-4)GlcNAc
Procedure, shortened: as §1

[2] = target: GlcNAc(a1-4)Gal(b1-3)GlcNAc
Procedure, shortened: as §1

[3] = target: GlcNAc(a1-4)Gal(b1-4)GalNAc
Procedure, shortened: as §1

[4] = target: GlcNAc(a1-4)Gal(b1-4)GlcNAc
Procedure, shortened: as §1

[5] = target: GlcNAc(a1-4)Gal(b1-4)GlcNAc(b1-3)Gal(b1-4)Glc
Procedure, shortened: as §1

[6] = target: GlcNAc(a1-4)Gal(b1-4)GlcNAc(b1-3)Gal(b1-4)GlcNAc
Procedure, shortened: as §1

[7] = target: GlcNAc(a1-4)Gal(b1-4)GlcNAc(b1-3)Gal(b1-4)GlcNAc(b1-3)Gal(b1-4)GlcNAc
Procedure, shortened: as §1

[8] = target: GlcNAc(a1-4)Gal(b1-4)GlcNAc(b1-3)Gal(b1-4)[Fuc(a1-3)]GlcNAc(b1-3)Gal(b1-4)[Fuc(a1-3)]GlcNAc
Procedure, shortened: as §1

[9] = target: GlcNAc(a1-6)Gal(b1-4)GlcNAc
Procedure, shortened: as §1

[10] = target: GlcNAc(b1-2)Gal(b1-3)GalNAc
Procedure, shortened: as §1

[11] = target: GlcNAc(b1-2)Man(a1-3)[GlcNAc(b1-2)Man(a1-6)]Man(b1-4)GlcNAc(b1-4)GlcNAc
Procedure, shortened: as §1

[12] = target: GlcNAc(b1-2)Man(a1-3)[GlcNAc(b1-2)Man(a1-6)]Man(b1-4)GlcNAc(b1-4)[Fuc(a1-6)]GlcNAc
Procedure, shortened: as §1

GlcNAc(b1-3)Gal = target: GlcNAc(b1-3)Gal
Procedure, shortened: as §1

[13] = target: GlcNAc(b1-3)Gal(b1-3)GalNAc
Procedure, shortened: as §1

GlcNAc(b1-3)Gal(b1-4)Glc = target: GlcNAc(b1-3)Gal(b1-4)Glc
Procedure, shortened: as §1

[14] = target: GlcNAc(b1-3)Gal(b1-4)GlcNAc
Procedure, shortened: as §1

[15] = target: GlcNAc(b1-3)Gal(b1-4)GlcNAc(b1-3)Gal(b1-4)GlcNAc
Procedure, shortened: as §1

GlcNAc(b1-3)GalNAc = target: GlcNAc(b1-3)GalNAc
Procedure, shortened: as §1

GlcNAc(b1-3)Man = target: GlcNAc(b1-3)Man
Procedure, shortened: as §1

[16] = target: GlcNAc(b1-3)[GlcNAc(b1-4)][GlcNAc(b1-6)]GlcNAc
Procedure, shortened: as §1

[17] = target: GlcNAc(b1-3)[GlcNAc(b1-6)]Gal(b1-4)GlcNAc
Procedure, shortened: as §1

[18] = target: GlcNAc(b1-3)[GlcNAc(b1-6)]GalNAc
Procedure, shortened: as §1

[19] = target: GlcNAc(b1-4)Gal(b1-4)GlcNAc
Procedure, shortened: as §1

GlcNAc(b1-4)GlcNAc = target: GlcNAc(b1-4)GlcNAc
Procedure, shortened: as §1

[20] = target: GlcNAc(b1-4)GlcNAc(b1-4)GlcNAc
Procedure, shortened: as §1

[21] = target: GlcNAc(b1-4)GlcNAc(b1-4)GlcNAc(b1-4)GlcNAc(b1-4)GlcNAc
Procedure, shortened: as §1

[22] = target: GlcNAc(b1-4)GlcNAc(b1-4)GlcNAc(b1-4)GlcNAc(b1-4)GlcNAc(b1-4)GlcNAc
Procedure, shortened: as §1

[23] = target: GlcNAc(b1-4)[GlcNAc(b1-6)]GalNAc
Procedure, shortened: as §1

[24] = target: GlcNAc(b1-6)Gal(b1-4)GlcNAc
Procedure, shortened: as §1

GlcNAc(b1-6)GalNAc = target: GlcNAc(b1-6)GalNAc
Procedure, shortened: as §1

GlcNAc3Prop(b1-4)GlcNAc = target: GlcNAc3Prop(b1-4)GlcNAc
Procedure, shortened: as §1

[25] = target: GlcNAc6S(b1-3)Gal(b1-4)GlcNAc
Procedure, shortened: as §1

Kdn(a2-3)Gal(b1-3)GalNAc = target: Kdn(a2-3)Gal(b1-3)GalNAc
Procedure, shortened: as §1

Kdn(a2-3)Gal(b1-3)GlcNAc = target: Kdn(a2-3)Gal(b1-3)GlcNAc
Procedure, shortened: as §1

Kdn(a2-3)Gal(b1-4)Glc = target: Kdn(a2-3)Gal(b1-4)Glc
Procedure, shortened: as §1

Kdn(a2-3)Gal(b1-4)GlcNAc = target: Kdn(a2-3)Gal(b1-4)GlcNAc
Procedure, shortened: as §1

[26] = target: Kdn(a2-3)Gal(b1-4)[Fuc(a1-3)]GlcNAc
Procedure, shortened: as §1

Kdn(a2-6)Gal(b1-4)GlcNAc = target: Kdn(a2-6)Gal(b1-4)GlcNAc
Procedure, shortened: as §1

[27] = target: Man(a1-2)Man(a1-2)Man(a1-3)Man
Procedure, shortened: as §1

[28] = target: Man(a1-2)Man(a1-2)Man(a1-6)[Man(a1-3)]Man
Procedure, shortened: as §1

Man(a1-2)Man(a1-3)Man = target: Man(a1-2)Man(a1-3)Man
Procedure, shortened: as §1

[29] = target: Man(a1-2)Man(a1-3)[Man(a1-2)Man(a1-6)]Man
Procedure, shortened: as §1

[30] = target: Man(a1-2)Man(a1-3)[Man(a1-2)Man(a1-6)]Man(a1-6)[Man(a1-2)Man(a1-2)Man(a1-3)]Man
Procedure, shortened: as §1

[31] = target: Man(a1-2)Man(a1-3)[Man(a1-2)Man(a1-6)]Man(a1-6)[Man(a1-2)Man(a1-2)Man(a1-3)]Man(b1-4)GlcNAc(b1-4)GlcNAc
Procedure, shortened: as §1

[32] = target: Man(a1-2)Man(a1-3)[Man(a1-6)]Man(a1-6)[Man(a1-2)Man(a1-3)]Man(b1-4)GlcNAc(b1-4)GlcNAc
Procedure, shortened: as §1

[33] = target: Man(a1-2)Man(a1-6)[Man(a1-3)]Man(a1-6)[Man(a1-2)Man(a1-2)Man(a1-3)]Man
Procedure, shortened: as §1

[34] = target: Man(a1-2)Man(a1-6)[Man(a1-3)]Man(a1-6)[Man(a1-2)Man(a1-2)Man(a1-3)]Man(b1-4)GlcNAc(b1-4)GlcNAc
Procedure, shortened: as §1

Man(a1-3)[Man(a1-6)]Man = target: Man(a1-3)[Man(a1-6)]Man
Procedure, shortened: as §1

[35] = target: Man(a1-3)[Man(a1-6)]Man(a1-6)[Man(a1-2)Man(a1-3)]Man(b1-4)GlcNAc(b1-4)GlcNAc
Procedure, shortened: as §1

[36] = target: Man(a1-3)[Man(a1-6)]Man(a1-6)[Man(a1-3)]Man
Procedure, shortened: as §1

[37] = target: Man(a1-3)[Man(a1-6)]Man(a1-6)[Man(a1-3)]Man(b1-4)GlcNAc(b1-4)GlcNAc
Procedure, shortened: as §1

[38] = target: Man(a1-3)[Man(a1-6)]Man(b1-4)GlcNAc(b1-4)GlcNAc
Procedure, shortened: as §1

Man(a1-6)Man = target: Man(a1-6)Man
Procedure, shortened: as §1

Man(b1-4)GlcNAc = target: Man(b1-4)GlcNAc
Procedure, shortened: as §1

B1: Neuropilin-2 (Homo sapiens), O60462 (protein)
chain: MDMFPLTWVFLALYFSRHQVRGQPDPPCGGRLNSKDAGYITSPGYPQDYPSHQNCEWIVYAPEPNQKIVLNFNPHFEIEKHDCKYDFIEIRDGDSESADLLGKHCGNIAPPTIISSGSMLYIKFTSDYARQGAGFSLRYEIFKTGSEDCSKNFTSPNGTIESPGFPEKYPHNLDCTFTILAKPKMEIILQFLIFDLEHDPLQVGEGDCKYDWLDIWDGIPHVGPLIGKYCGTKTPSELRSSTGILSLTFHTDMAVAKDGFSARYYLVHQEPLENFQCNVPLGMESGRIANEQISASSTYSDGRWTPQQSRLHGDDNGWTPNLDSNKEYLQVDLRFLTMLTAIATQGAISRETQNGYYVKSYKLEVSTNGEDWMVYRHGKNHKVFQANNDATEVVLNKLHAPLLTRFVRIRPQTWHSGIALRLELFGCRVTDAPCSNMLGMLSGLIADSQISASSTQEYLWSPSAARLVSSRSGWFPRIPQAQPGEEWLQVDLGTPKTVKGVIIQGARGGDSITAVEARAFVRKFKVSYSLNGKDWEYIQDPRTQQPKLFEGNMHYDTPDIRRFDPIPAQYVRVYPERWSPAGIGMRLEVLGCDWTDSKPTVETLGPTVKSEETTTPYPTEEEATECGENCSFEDDKDLQLPSGFNCNFDFLEEPCGWMYDHAKWLRTTWASSSSPNDRTFPDDRNFLRLQSDSQREGQYARLISPPVHLPRSPVCMEFQYQATGGRGVALQVVREASQESKLLWVIREDQGGEWKHGRIILPSYDMEYQIVFEGVIGKGRSGEIAIDDIRISTDVPLENCMEPISAFAGENFKVDIPEIHEREGYEDEIDDEYEVDWSNSSSATSGSGAPSTDKEKSWLYTLDPILITIIAMSSLGVLLGATCAGLLLYCTCSYSGLSSRSCTTLENYNFELYDGLKHKVKMNHQKCCSEA
glycan array binding signal (z-score) (Glc(a1-6)Glc(a1-6)Glc): -0.466
glycan array binding signal (z-score) (Glc(b1-4)Glc): 0.381
glycan array binding signal (z-score) (Glc(b1-6)Glc): -0.687
glycan array binding signal (z-score) (GlcA(b1-3)Gal): -0.364
glycan array binding signal (z-score) (GlcA(b1-3)GlcNAc): -0.632
glycan array binding signal (z-score) (GlcA(b1-6)Gal): -0.217
glycan array binding signal (z-score) [1]: -0.437
glycan array binding signal (z-score) [2]: 1.66
glycan array binding signal (z-score) [3]: 6.59
glycan array binding signal (z-score) [4]: 0.239
glycan array binding signal (z-score) [5]: 1.04
glycan array binding signal (z-score) [6]: 0.627
glycan array binding signal (z-score) [7]: -0.398
glycan array binding signal (z-score) [8]: 10.4
glycan array binding signal (z-score) [9]: -0.283
glycan array binding signal (z-score) [10]: -0.287
glycan array binding signal (z-score) [11]: -0.218
glycan array binding signal (z-score) [12]: 0.982
glycan array binding signal (z-score) (GlcNAc(b1-3)Gal): -0.382
glycan array binding signal (z-score) [13]: 1.07
glycan array binding signal (z-score) (GlcNAc(b1-3)Gal(b1-4)Glc): -0.317
glycan array binding signal (z-score) [14]: -0.483
glycan array binding signal (z-score) [15]: -0.254
glycan array binding signal (z-score) (GlcNAc(b1-3)GalNAc): -0.205
glycan array binding signal (z-score) (GlcNAc(b1-3)Man): -0.027
glycan array binding signal (z-score) [16]: 0.25
glycan array binding signal (z-score) [17]: -0.172
glycan array binding signal (z-score) [18]: 0.104
glycan array binding signal (z-score) [19]: -0.924
glycan array binding signal (z-score) (GlcNAc(b1-4)GlcNAc): -0.129
glycan array binding signal (z-score) [20]: -0.709
glycan array binding signal (z-score) [21]: -0.794
glycan array binding signal (z-score) [22]: -0.481
glycan array binding signal (z-score) [23]: -0.173
glycan array binding signal (z-score) [24]: 0.119
glycan array binding signal (z-score) (GlcNAc(b1-6)GalNAc): -0.179
glycan array binding signal (z-score) (GlcNAc3Prop(b1-4)GlcNAc): -0.453
glycan array binding signal (z-score) [25]: -0.731
glycan array binding signal (z-score) (Kdn(a2-3)Gal(b1-3)GalNAc): -0.498
glycan array binding signal (z-score) (Kdn(a2-3)Gal(b1-3)GlcNAc): -0.115
glycan array binding signal (z-score) (Kdn(a2-3)Gal(b1-4)Glc): -0.063
glycan array binding signal (z-score) (Kdn(a2-3)Gal(b1-4)GlcNAc): -0.082
glycan array binding signal (z-score) [26]: 0.559
glycan array binding signal (z-score) (Kdn(a2-6)Gal(b1-4)GlcNAc): -0.13
glycan array binding signal (z-score) [27]: -0.286
glycan array binding signal (z-score) [28]: -0.323
glycan array binding signal (z-score) (Man(a1-2)Man(a1-3)Man): -0.503
glycan array binding signal (z-score) [29]: -0.496
glycan array binding signal (z-score) [30]: -0.552
glycan array binding signal (z-score) [31]: 0.34
glycan array binding signal (z-score) [32]: -0.144
glycan array binding signal (z-score) [33]: -0.668
glycan array binding signal (z-score) [34]: -0.61
glycan array binding signal (z-score) (Man(a1-3)[Man(a1-6)]Man): -0.354
glycan array binding signal (z-score) [35]: -0.461
glycan array binding signal (z-score) [36]: -0.72
glycan array binding signal (z-score) [37]: 0.082
glycan array binding signal (z-score) [38]: -0.069
glycan array binding signal (z-score) (Man(a1-6)Man): -0.124
glycan array binding signal (z-score) (Man(b1-4)GlcNAc): -0.332
